Results on 1 molecule are retold here after patent publication US20240360192A1 (BEIJING VDJBIO, published 2024).

What is called Kd is the free concentration of one partner at which half of the binding sites on the other are occupied at equilibrium, for simple one-to-one binding. A word on the koff: it is a measure of how fast the partners let go of each other. Low readings indicate slow dissociation, high ones fast dissociation. For orientation: kon means the rate constant with which the complex forms. A high value points to fast association.

In assay [1] the target is Rat IL-2R (rIL2R, self-made, 20220111) (rat, UniProt P26897 22-235; P26896 27-239). The assay is described as follows: BLI, rIL2R captured on hFc probe, IL-2-HSA as analyte.
Assay [2] addresses T1, Dog IL-2R (CaIL2R, self-made, 20220421) (dog, UniProt O62802 22-237; P40321 23-261).
T1 construct: also called dog IL-2 receptor
The assay is described as follows: BLI, CaIL2R captured on hFc probe, IL-2-HSA as analyte.

The target of assay [3] is T2, Human IL-2R (hIL2R, BIOSYSTEMS, ILGH5257) (human, UniProt P01589 22-240; P14784 27-240; P31785 23-262).
T2 construct: also called human IL-2 receptor; not shown: the vendor's exact limits and how the subunits are joined; copies: 1 + 1 + 1
T2 sequence (alpha): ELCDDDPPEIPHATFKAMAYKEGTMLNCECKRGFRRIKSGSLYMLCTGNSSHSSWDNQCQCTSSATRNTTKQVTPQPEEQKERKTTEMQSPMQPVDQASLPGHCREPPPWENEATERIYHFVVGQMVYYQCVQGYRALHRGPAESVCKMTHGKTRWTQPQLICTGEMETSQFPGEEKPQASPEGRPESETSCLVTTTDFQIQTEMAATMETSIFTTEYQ
T2 sequence (beta): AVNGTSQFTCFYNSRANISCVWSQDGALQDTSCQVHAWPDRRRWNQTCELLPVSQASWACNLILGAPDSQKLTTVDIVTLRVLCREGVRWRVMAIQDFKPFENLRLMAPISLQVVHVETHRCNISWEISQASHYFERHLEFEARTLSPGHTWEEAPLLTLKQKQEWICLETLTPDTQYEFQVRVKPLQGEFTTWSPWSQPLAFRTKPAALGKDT
T2 sequence (gamma): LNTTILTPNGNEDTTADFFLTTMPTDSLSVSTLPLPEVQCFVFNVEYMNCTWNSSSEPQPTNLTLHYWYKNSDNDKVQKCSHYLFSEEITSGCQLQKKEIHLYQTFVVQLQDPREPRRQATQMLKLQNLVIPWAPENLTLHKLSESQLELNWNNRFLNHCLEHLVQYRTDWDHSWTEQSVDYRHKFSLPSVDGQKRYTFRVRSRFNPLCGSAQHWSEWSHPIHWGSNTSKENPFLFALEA
The assay is described as follows: BLI, hIL2R captured on ProA probe, IL-2-HSA as analyte. (Biolayer interferometry detects binding as a change in optical thickness at a sensor tip.)

Assay [4] has as its target T3, Mouse IL-2R (mIL2R, BIOSYSTEMS, ILGM5253) (mouse).
T3 construct: also called mouse IL-2 receptor
Put plainly: BLI, mIL2R captured on ProA probe, IL-2-HSA as analyte.

B1: IL-2-HSA fusion protein (ligand)
chain: not shown
notes: also called fusion protein of interleukin 2; VDJ010
Turning to B1, the Kd came out at 0.311 nM in assay [1], 0.13 nM in assay [2], 0.086 nM in assay [3] and 0.538 nM in assay [4]. Further, the koff in assay [1] was 0.000549 s⁻¹; in assay [2], 0.000412 s⁻¹; in assay [3], 0.000169 s⁻¹; in assay [4] it was 0.000887 s⁻¹. In addition, the on-rate (kon) in assay [1] is 1.77e+06 M⁻¹ s⁻¹; in assay [2], 3.16e+06 M⁻¹ s⁻¹; in assay [3] it was 1.96e+06 M⁻¹ s⁻¹; in assay [4], 1.65e+06 M⁻¹ s⁻¹.
